Measurements from paper PMC4336329 (PLoS ONE, 2015).
Hit rate of the full screen: of about 310,000 compounds, about 2,200 (0.71%) showed an effect of 50% or more. Effects have a minus sign here. This is one part of the list.

biological target: human ether-à-go-go-related gene (hERG) potassium channel (human, UniProt Q12809); assay: primary screen, population patch clamp on CHO cells stably expressing hERG
Sequence (Q12809 whole entry, looked up): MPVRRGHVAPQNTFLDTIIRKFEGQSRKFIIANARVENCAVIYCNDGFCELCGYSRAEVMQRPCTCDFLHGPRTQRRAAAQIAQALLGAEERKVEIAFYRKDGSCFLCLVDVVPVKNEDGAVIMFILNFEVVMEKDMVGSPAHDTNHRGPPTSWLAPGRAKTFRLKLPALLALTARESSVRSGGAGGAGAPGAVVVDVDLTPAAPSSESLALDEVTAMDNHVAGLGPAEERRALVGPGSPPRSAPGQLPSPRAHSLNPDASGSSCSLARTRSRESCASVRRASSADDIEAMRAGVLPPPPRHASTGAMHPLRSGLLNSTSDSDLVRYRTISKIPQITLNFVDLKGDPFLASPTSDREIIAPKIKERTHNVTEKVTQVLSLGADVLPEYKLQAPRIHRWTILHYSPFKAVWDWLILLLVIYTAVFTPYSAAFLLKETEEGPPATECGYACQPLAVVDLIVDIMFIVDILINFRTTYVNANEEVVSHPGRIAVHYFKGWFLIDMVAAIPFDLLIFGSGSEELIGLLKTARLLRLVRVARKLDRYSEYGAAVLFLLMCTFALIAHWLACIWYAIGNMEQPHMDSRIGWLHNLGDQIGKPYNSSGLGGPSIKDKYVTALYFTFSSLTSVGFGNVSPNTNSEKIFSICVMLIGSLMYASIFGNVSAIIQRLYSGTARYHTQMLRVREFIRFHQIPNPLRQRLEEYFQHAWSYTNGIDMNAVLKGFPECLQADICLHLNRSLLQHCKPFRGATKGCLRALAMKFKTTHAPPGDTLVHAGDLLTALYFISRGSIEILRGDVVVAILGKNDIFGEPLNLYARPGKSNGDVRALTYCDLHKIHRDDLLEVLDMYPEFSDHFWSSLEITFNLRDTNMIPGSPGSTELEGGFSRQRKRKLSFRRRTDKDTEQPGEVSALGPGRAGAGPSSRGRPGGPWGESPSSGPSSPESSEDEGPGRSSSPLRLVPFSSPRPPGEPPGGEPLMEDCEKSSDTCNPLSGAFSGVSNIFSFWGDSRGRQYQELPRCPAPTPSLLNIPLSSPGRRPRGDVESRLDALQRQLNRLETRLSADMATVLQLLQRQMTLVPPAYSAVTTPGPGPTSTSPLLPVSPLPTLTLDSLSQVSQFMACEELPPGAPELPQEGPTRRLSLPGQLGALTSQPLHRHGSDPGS

SMILES	hERG current change (%, negative = inhibition) at 1uM [%]
O=S(=O)(CCc1nc2ccccc2o1)c1ccc(Cl)c(Cl)c1	7.06
FC(F)(F)c1cc(N2CCNCC2)c2ccccc2n1	11.4
O=C(Nc1ccc(F)cc1)c1nsc(Cl)c1Cl	9.66
CCN(Cc1ccccc1)C(=O)C1CCN(C(=O)Nc2ccccc2)CC1	3.54
Cc1cc(-c2ccccc2)nc(N/N=C/c2ccc(O)cc2O)n1	9.59
CCCCCCCC(=O)N/N=C(\C)c1ccc(O)cc1O	-2.34
Cc1ccc(CCNC(=O)C2CC(=O)N(CCc3ccccc3)C2)cc1 (centres unmarked)	15
COc1ccc(OC)c(CNC(=O)C2CCC(=O)N2C(C)C)c1 (centres unmarked)	10.6
O=C(Nc1ccccc1)N1CCCC1c1cccs1 (centres unmarked)	12.7
Cc1ccc(-n2c(C)cc(/C=N/NC(=O)Cn3c4ccccc4c(=O)c4ccccc43)c2C)cc1	13.7
CCCCn1nc(C(=O)N2CCN(S(=O)(=O)c3ccccc3)CC2)c2ccccc2c1=O	10.8
COc1ccccc1CNC(=O)COC(=O)CSc1ccc(F)cc1	11.5
Cc1ccc(C(=O)N2CC=C(c3ccccc3)CC2)s1	9.07
Cn1c(=O)[nH]c(=O)c2c1nc(SCCO)n2CC(O)COc1ccccc1 (centres unmarked)	19.4
O=c1c(CN2CCN(Cc3ccccc3)CC2)coc2ccc(Cl)cc12	3.23
COC(=O)c1cncn1C(C)c1ccccc1.Cl (centres unmarked)	13.9
COc1ccc(C(=O)Oc2c(OC)cc(C(=S)N3CCOCC3)cc2OC)cc1	11.4
Cc1csc2ncnc(N3CCN(C(=O)Nc4ccc(OC(F)(F)F)cc4)CC3)c12	0.933
FC(F)(F)c1ccccc1CNCc1ccncc1	11.6
CNC(=O)c1ccc(Nc2nc(-c3ccccc3)nc3ccccc23)cc1	16.1
COc1cccc(NC(=O)C2CC(=O)N=C(N)S2)c1 (centres unmarked)	11.4
CCC1(C)CC(CCNCc2ccc(N(C)C)cc2)(c2ccc(F)cc2)CCO1 (centres unmarked)	7.91

SMILES	hERG current change (%, negative = inhibition) at 1uM [%]
Cc1ccc(-c2cc(C(=O)NC3=NCCS3)c3cc(Br)ccc3n2)o1	12.7
Cc1ccc(S(=O)(=O)/N=C(/NC(=S)Nc2ccccc2)c2ccccc2)cc1	0.508
O=C1CC(Nc2ccc(N3CCOCC3)cc2)C(=O)N1CCc1ccccc1 (centres unmarked)	3.73
CCO[C@@H]1OC(C(=O)N2CCOCC2)=C[C@H](c2coc3ccccc3c2=O)[C@H]1CCCO	6.91
CCCOc1ccc(Cn2c(C)nc([N+](=O)[O-])c2SCC(O)COC)cc1[N+](=O)[O-] (centres unmarked)	-28
COCCN1C(=O)CS/C1=C(/C#N)C(=O)NCc1ccco1	2.38
CCc1nnc(NC(=O)CSc2nnc(Cc3cc(=O)[nH]c(=O)[nH]3)n2-c2ccc(OC)cc2)s1	-2.63
CCn1c(C)nc2cc(C(=O)NNS(=O)(=O)c3cc(Br)ccc3Br)ccc21	8.68
Cn1cc(CNCc2cn[nH]c2-c2ccc(F)cc2)c(-c2ccc3c(c2)OCCO3)n1	-3.31
Cc1ccc(NC(=O)C2=C(c3ccccc3)S(=O)(=O)CCS2(=O)=O)cc1	13.1
CC(Oc1ccc2ccc(=O)oc2c1)C(=O)NC1CC(C)(C)NC(C)(C)C1 (centres unmarked)	20.5
COc1cccc(-n2c(SCC(=O)Nc3ccc4c(c3)CCC4)nc3ccccc3c2=O)c1	5.97
OCCNc1ncnc2c1sc1nc(N3CCOCC3)c3c(c12)CCC3	1.75
O=C(c1ccccc1O)N1CCOCC1	6.03
COc1ccc2nc(NC(=O)c3ccccc3[N+](=O)[O-])sc2c1	1.83
O=C1/C(=C/c2ccc([N+](=O)[O-])cc2)C=C(c2ccccc2)N1c1ccccc1	-0.029
CCOC(=O)CSc1c(-c2ccccc2)c2cc(Cl)ccc2[nH]c1=O	4.76
Cc1c(C(=O)N2CCCCC2)c(S(=O)(=O)N2CCN(c3ccc(Cl)cc3)CC2)c(C)n1C	-4.76
COC(=O)c1ccc(C2/C(=C(\O)c3cccc(OC)c3)C(=O)C(=O)N2CCCN2CCOCC2)cc1 (centres unmarked)	15.1
CC(C)(C)c1ccc(S(=O)(=O)CC(O)CSc2nc3c(cc2C#N)CCCC3)cc1 (centres unmarked)	11.1
c1ccc(-n2ncc3c(N4CCCC4)ncnc32)cc1	2.65
Cc1nc2c3cnn(-c4ccc(C)c(C)c4)c3ncn2n1	14.2

SMILES	hERG current change (%, negative = inhibition) at 1uM [%]
Cc1sc2nc(Cc3ccccc3)[nH]c(=O)c2c1-c1ccccc1	17.3
COc1ccc(CCNC(=O)Nc2ccc([N+](=O)[O-])cc2)cc1OC	-5.79
COc1ccc2[nH]cc(CCNC(=O)Cc3ccc(Cl)cc3)c2c1	14.7
Cc1ccc(N2C(=O)c3ccc(C(=O)N4CCN(c5ccccc5F)CC4)cc3C2=O)cc1	7.2
CNC(=O)c1ccc(Nc2nnc(-c3ccc(C(N)=O)cc3)c3ccccc23)cc1	10
COc1ccc(CN2CNc3c(c(=O)n(C)c(=O)n3C)C2)cc1	6.88
CCn1c(CNc2ccc(Cl)cc2)nnc1SCc1ccc(C)cc1	9.6
Cc1cccc(NC(=S)NNC(=O)c2ccc(O)cc2O)c1C	20.3
COCCCNC(=O)CN1C(=O)COc2ccc(S(=O)(=O)N3CCOCC3)cc21	0.471
COc1ccc(S(=O)(=O)N(C)C)cc1NC(=O)CSC(C)C(=O)Nc1cc(C)on1 (centres unmarked)	2.09
COC(=O)c1ccc(OCC(O)CN2C(=O)c3ccccc3S2(=O)=O)cc1 (centres unmarked)	15.5
COc1ccc(CCNC(=O)c2ccc3c(c2)SC2=NS(=O)(=O)CCN23)cc1	-7.12
O=C(CCn1c(=O)[nH]c2ccsc2c1=O)N1CCc2ccccc2C1	9.65
COc1ccc(C(=O)OCC(=O)NCc2ccco2)cc1OC	14.9
COc1ccc(CC(=O)Nc2ccc(F)c(Cl)c2)cc1S(=O)(=O)N1CCOCC1	-2.62
Cc1ccc(C(CC(=O)c2ccc(Cl)cc2)C(=O)O)cc1 (centres unmarked)	2.03
O=C(CCN1C(=O)c2ccc(Br)cc2C1=O)NC1CCCCC1	15.6
CCOC(=O)c1nnn(-c2nonc2-n2cccc2)c1CN1CCC(C)CC1	12.3
CC1=C(C(=O)Nc2cccc(F)c2)C(c2ccsc2)C2=C(CC(C)(C)CC2=O)N1 (centres unmarked)	11.5
Cc1[nH]n(C(N)=S)c(=O)c1N=Nc1cc(C(F)(F)F)ccc1Cl	14
O=C(NCCN1CCN(c2ccccc2)CC1)C1CCCN(S(=O)(=O)c2cnc[nH]2)C1 (centres unmarked)	13.6
FC(F)(F)c1cccc(-n2nnnc2C2(N3CCOCC3)CCCCC2)c1	1.96

SMILES	hERG current change (%, negative = inhibition) at 1uM [%]
CCc1ccc(N(C(=O)c2csnn2)C(C(=O)NCc2ccccc2)c2ccco2)cc1 (centres unmarked)	6.67
COc1ccc(CN2CCNC(=O)C2CC(=O)NC2CC(C)(C)CC(C)(C)C2)cc1OC (centres unmarked)	-0.179
CC(NC(=O)c1cc2ccccc2oc1=O)c1ccc(O)cc1 (centres unmarked)	8.69
Cc1ccc(CC(=O)N(C)CC(=O)N(CC(C)C)c2c(N)n(CC(C)C)c(=O)[nH]c2=O)cc1C	5.19
Cc1onc(-c2c(F)cccc2Cl)c1C(=O)NC(=S)NC1CCSC1=O (centres unmarked)	9.24
O=C(NCCCN1CCCCC1)C1CCN(S(=O)(=O)N2CCC3(CC2)OCCO3)CC1	12.5
O=C(c1ccc(C(F)(F)F)cc1)n1ccc(-c2cccs2)n1	16.1
COc1cc(C(=O)NNC2=CC(=O)CC(C)(C)C2)cc(OC)c1OC	6.45
CCCCN(CC)CCNC(=O)c1cc2c(=O)[nH]c3ccccc3c2n1C	11.5
Cc1ccccc1C(=O)Nc1c(C(=O)N2CCCC2)cnn1-c1ccccc1	3.32
Cn1nc(-c2ccccc2)c(CN2CCN(c3ncccn3)CC2)c1Cl	10.8
C/C(=N\NC(=O)c1ccccc1)c1c(O)n(C2CCCCC2)c(=O)[nH]c1=O	15.8
CCOCC(=O)N1CCN(c2ccc([N+](=O)[O-])cc2)CC1	-48.4
CCN1C(=O)C2(C(C#N)=C(N)Oc3c2c(C)nn3-c2ccccc2)c2ccccc21 (centres unmarked)	2.45
COc1ccc(CN2CCSc3sccc3C2=O)cc1	3.85
COC(=O)c1ccc(NC(=O)CCOc2ccccc2)cc1	7.08
COCCCNC(=O)CN1C(=O)COc2ccc(S(=O)(=O)N3CC(C)CC(C)C3)cc21 (centres unmarked)	7.83
Cc1ccccc1OCC(=O)OCC(=O)c1ccc(OC(=O)c2ccccc2)cc1	-11.4
CCCOc1ccc(C(=O)Nc2ccc(S(=O)(=O)NC3=NCCCCC3)cc2)cc1	15.5
COc1ccc(N(C(=O)CNC(=O)c2cccs2)C(C(=O)NCC2CCCO2)c2ccccc2)cc1 (centres unmarked)	19
